Source: PubChem BioAssay AID1346428 (National Center for Advancing Translational Sciences (NCATS), 2018)
The whole screen tested about 48,000 compounds, of which about 1,200 (2.5%) were called active. Another 2% or so got no clear call; they are omitted.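 Rule for the calls: active = activation of at least 60% and not above a set upper limit (about 1 call in 100 departs from these limits); inconclusive = activation of 40% to 60%, or above that upper limit; inactive = activation under 40%.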 Some of the results follow.

Biological target: Probable G-protein coupled receptor 32 (Homo sapiens) (UniProt O75388)
Chain of UniProt O75388 (O75388 whole entry, looked up): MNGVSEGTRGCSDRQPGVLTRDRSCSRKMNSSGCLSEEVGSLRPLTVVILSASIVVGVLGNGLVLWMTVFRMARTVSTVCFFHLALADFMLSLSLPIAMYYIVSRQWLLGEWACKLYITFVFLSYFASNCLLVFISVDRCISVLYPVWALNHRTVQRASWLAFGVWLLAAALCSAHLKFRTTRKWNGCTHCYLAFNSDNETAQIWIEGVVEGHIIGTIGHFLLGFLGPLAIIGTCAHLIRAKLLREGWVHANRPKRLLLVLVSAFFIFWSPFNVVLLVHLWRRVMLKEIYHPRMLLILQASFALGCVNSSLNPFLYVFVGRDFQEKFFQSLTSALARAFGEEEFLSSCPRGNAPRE
Assay: qHTS for Agonists of Human Resolvin D1 Receptor DRV1; note: 0% is about no effect
Conditions: CHO-K1 GPR32 beta-arrestin PathHunter luminescence, 90 min; at 76.9 µM; hits give high values; zero percent set by DMSO-only wells
Summary of the method: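 GPR32 activation in stably transfected CHO-K1 cells, detected as beta-arrestin recruitment by enzyme-fragment complementation. Compound exposure: 90 min, 37 °C.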

Row | SMILES | activation
1 | CCc1ccccc1NS(=O)(=O)c1ccc2c(c1)CCN2C(=O)C1CC1 | inactive: -7.89%
2 | CCc1ccc(-c2nn(CC(=O)NC3CCCCC3)c3c2cnc2ccc(C)cc23)cc1 | inactive: -6.63%
3 | c1ccc(N2CCN(Cc3cccn3-c3nnc(N4CCN(C5CCCCC5)CC4)s3)CC2)cc1 | inactive: 28.4%
4 | CCOc1ccc(CCNC(=O)c2nn(-c3ccc(OC)c(Cl)c3)c(=O)c3c2c2ccccc2n3C)cc1OCC | inactive: -11.8%
5 | Cn1c(=O)c2cc(C(=O)NCCCN3CCN(c4cccc(Cl)c4)CC3)sc2c2ccccc21 | inactive: 7.69%
6 | Cc1nn(-c2ccccc2)c(-n2cccc2)c1C(=O)NCCc1ccc(Cl)cc1 | inactive: -9.46%
7 | O=C(COc1ccc(Br)cc1Cl)Nc1ncn[nH]1 | inactive: 11.6%
8 | CC(C)Cn1c(=O)c2sccc2n2c(CCCC(=O)NCCc3ccc(Cl)cc3)nnc12 | inactive: -9.38%
9 | O=C(Nc1ccc(Br)cc1)c1ccc(F)c(S(=O)(=O)N2CCCc3ccccc32)c1 | inactive: -3.74%
10 | CC(C)NC(=O)c1ccc(-n2c(-c3ccccc3)cc3c2CCCC3)cc1 | inactive: -23.8%
11 | COc1ccc(OCC(=O)Nc2ccc3c(c2)nc(CCNC(=O)c2ccco2)n3C)cc1 | inactive: 10.5%
12 | CCc1ccc(NC(=O)CSc2nc(-c3ccccc3Cl)nc3c2Cc2c(CO)cnc(C)c2O3)cc1 | inactive: -4.18%
13 | CCc1ccc2nc(N(Cc3cccnc3)C(C)=O)sc2c1 | inactive: -26.4%
14 | CCOC(=O)c1ccc(CN(Cc2ccc(Cl)cc2Cl)S(=O)(=O)c2ccc(F)c(C)c2)cc1 | inactive: -17.8%
15 | COc1ccc(NC(=O)Cn2c(=O)n(Cc3nc(-c4ccccc4)no3)c(=O)c3cc4c(cc32)OCO4)c(OC)c1 | inactive: -0.763%
16 | O=C(Nc1ccc2oc(-c3cccnc3)nc2c1)c1ccc(Br)cc1 | inactive: -0.276%
17 | Cc1nn(CC(=O)NCc2ccc(Cl)cc2)c(=O)c2cc3sccc3n12 | inactive: 1.84%
18 | CN1CCN(c2c(F)cc3c(=O)c(C(=O)O)cn4c3c2SCC4)CC1 | inactive: 3.03%
19 | COC(=O)c1scc(-c2ccc(C)cc2)c1S(=O)(=O)Nc1ccc(F)cc1F | inactive: -11%
20 | CC(=O)c1ccc(NC(=O)C2Cc3ccccc3N2C(=O)c2ccccc2)cc1 (stereo not drawn) | inactive: -8.81%
21 | Cc1ccc(N2CCN(S(=O)(=O)c3cc(C(=O)Nc4cc(Cl)cc(Cl)c4)ccc3F)CC2C)cc1 (stereo not drawn) | inactive: 2.83%
22 | CC(=O)Nc1nonc1-c1nnc(SCC(=O)Nc2cccc(F)c2)n1-c1ccccc1 | inactive: -15.3%
23 | Cc1ccc(CN2CCCn3nc(C(=O)NC(C)C)cc3C2=O)cc1 | inactive: 10.1%
24 | COc1ccc(C)cc1NC(=O)Cn1c(=O)c(C(F)(F)F)nc2ccccc21 | inactive: 1.99%
25 | CN(C)S(=O)(=O)c1ccc2c(c1)N(CC(=O)NCc1ccc(F)cc1)C(=O)CS2 | inactive: -25.4%
26 | Cc1ccc(NC(=O)Cn2cc3c(n2)CCCC3)c(Cl)c1 | inactive: -2.87%
27 | CNc1c2c(nn1C)CCCC2 | inactive: 0.585%

Row | SMILES | activation
28 | COc1ccccc1N1CCN(c2ccc(=O)n(CC(=O)NCc3ccc(OC(C)C)cc3)n2)CC1 | inactive: 27.1%
29 | COc1ccc(Oc2c(C(F)(F)F)oc3c(CN4CCCC(C)C4)c(O)ccc3c2=O)cc1 (stereo not drawn) | inactive: -21.7%
30 | Cc1cccc(-c2nc3scc(CCNS(=O)(=O)c4ccc(Oc5ccccc5)cc4)n3n2)c1 | inactive: -1.7%
31 | Cc1nn(C)c2c1c(C(F)(F)F)cc(=O)n2CC(=O)NCCC(C)C | inactive: -11.9%
32 | CC1=C(c2ccc(C)cc2)S(=O)(=O)NC1=NCCCN1CCN(c2ccccc2F)CC1 | inactive: 6.72%
33 | COc1ccc(-n2nc(C(=O)N3CCN(c4ccc(F)cc4)CC3)c3c4ccccc4n(C)c3c2=O)cc1 | inactive: 17%
34 | COc1ccc(-n2nc(C(=O)Nc3cc(OC)c(OC)c(OC)c3)c(=O)n(C)c2=O)cc1 | inactive: -14.1%
35 | O=C(Nc1ccc2oc(-c3cccnc3)nc2c1)c1ccc(-c2ccccc2OC(F)(F)F)o1 | inactive: 16.2%
36 | COc1ccc(-c2cc3ccc(O)c(CN4CCC(C)CC4)c3oc2=O)cc1 | inactive: -3.1%
37 | O=C(O)c1ccc(Nc2nc3ccccc3n3cnnc23)cc1 | inactive: -2.74%
38 | Cc1cc(C)n(-c2nc3ccccc3nc2Nc2ccc(Cl)cc2Cl)n1 | inactive: -3.27%
39 | CCn1c(=O)c2cc(C(=O)NCCCOC)sc2c2ccccc21 | inactive: -12.3%
40 | CC(=O)N1CCCc2cc(S(=O)(=O)NCc3cccc(C)c3)ccc21 | inactive: 10.2%
41 | COc1ccc(CNC(=O)CCC2N=C3c4ccccc4N=C(SCc4cccc(F)c4)N3C2=O)cc1 (stereo not drawn) | inactive: -8.19%
42 | CCCN(CCC)C(=O)Cn1nnc2sc(-c3ccccc3)cc2c1=O | inactive: -2.31%
43 | O=c1c2cnn(-c3ccc(F)cc3)c2ncn1Cc1cccc(Cl)c1 | inactive: 6.86%
44 | Cc1ccc(C(=O)c2cn(Cc3cccc(C)c3)c3nc(C)ccc3c2=O)cc1 | inactive: -17.2%
45 | Cc1nn2c(=O)cc(COC(=O)c3cccc(NC(=O)COc4ccccc4Cl)c3)nc2s1 | inactive: -11.8%
46 | Cc1ccc(CNC(=O)c2nc(SCc3ccc(F)cc3)ncc2Cl)cc1 | inactive: -22.3%
47 | CC(C)Oc1ccc(CNS(=O)(=O)c2ccc3c(c2)C(C)(C)C(=O)N3C)cc1 | inactive: -1.99%
48 | COc1ccc(NC(=O)Cn2c(=O)n(-c3ccccc3)c(=O)c3c4c(sc32)CCCC4)c(OC)c1 | inactive: -20%
49 | Cc1cc(C)n2c(Nc3ccc4c(c3)OCCO4)c(-c3ccc(Cl)cc3)nc2n1 | inactive: -35.2%
50 | COc1ccc(S(=O)(=O)n2nc(C)c(S(=O)(=O)N3CCCCCC3)c2C)cc1 | inactive: 22.1%
51 | COC(=O)c1cc(S(=O)(=O)N2CCN(c3ccc(OC)cc3)CC2)c[nH]1 | inactive: -13.7%
52 | COc1cccc(NC(=O)CSCc2cc(=O)c3ccc(C)c(C)c3[nH]2)c1 | inactive: 9.77%
53 | CCC(=O)N1CCc2cc(S(=O)(=O)NC(CC(C)C)C(=O)NCCc3cccc(C)c3)ccc21 (stereo not drawn) | active: 64.6%
